Sequences and labels used below:
B1: TPR 5TU (parent)
chain: GGAUCUUCUCGAUCUAACAAAAAAGACAAAUCUGCCACAAAGCUUGAGAGCAUCUUCGGAUGCAGAGGCGGCAGCCUUCGGUGGCGCGAUAGCGCCAACGUUCUCAACUAUGACACGCAAAACGCGUGCUCCGUUGAAUGGAGUUUAUCAUG

This sample is rich in variants without activity.

Variants of B1 are the subject of this data set. As to the kind of experiment: polymerase ribozyme fitness, log enrichment relative to wild type (log ratio); higher = more active; in vitro selection for triplet polymerase activity. A digest of the protocol: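 After PCR construction and transcription, each subunit's mutant library from a heterodimeric triplet polymerase ribozyme was annealed with a biotinylated primer, the partner subunit and triplets. Incubation was frozen, at −7 °C, and extended constructs were gel-excised, bound to streptavidin beads and amplified by RT-PCR, in one selection round done in triplicate. Fitness is the logarithm of a genotype's enrichment divided by that of the wild type, from inverse-variance-weighted replicate averages of Illumina-sequenced inputs and outputs. The base of the logarithm is 2, and genotypes needed ≥10 input reads and ≥1 read per output.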
Consider A20G C36G G59C G94A A142U, for which the “polymerase ribozyme fitness (log ratio)” value was no more than -4.2.

As for A21C A28U C85G U127A U130G G152U, the “polymerase ribozyme fitness (log ratio)” value is no more than -4.2.

On to A20C A23C A47C C93U, for which the “polymerase ribozyme fitness (log ratio)” value is no more than -4.2.

On to A20C U53A G84A, for which the “polymerase ribozyme fitness (log ratio)” value was -1.69.

For A20C A49G C51U A106G C123A G140U, the “polymerase ribozyme fitness (log ratio)” value was no more than -4.2.

With A20C G80U C87A G141U, the “polymerase ribozyme fitness (log ratio)” value is no more than -4.2.

On to A20G C43U U55A C79A G86A C131U C132U, for which the “polymerase ribozyme fitness (log ratio)” value is no more than -4.2.

With A20U G83A C99U A137C, the “polymerase ribozyme fitness (log ratio)” value is no more than -4.2.

As to A20G U56A, the “polymerase ribozyme fitness (log ratio)” value was -0.723.

Turning to A21C A23C C35A G58U G59A C85U G100C C105G U111A U135A U148C, the “polymerase ribozyme fitness (log ratio)” value was no more than -4.2.

Consider A20G A21U A49U U53G C85A C87G C118U, for which the “polymerase ribozyme fitness (log ratio)” value was no more than -4.2.

On to A20U A47U G68A G83U C87U U130C G140A, for which the “polymerase ribozyme fitness (log ratio)” value is no more than -4.2.

For A20U A47U C54U A60G U61A A64C C93U C95A U145A, the “polymerase ribozyme fitness (log ratio)” value is no more than -4.2.

A20G G62C A91G C123G: the “polymerase ribozyme fitness (log ratio)” value is no more than -4.2.

A20G U44A C69U G86U C95A: the “polymerase ribozyme fitness (log ratio)” value is no more than -4.2.

A20C G25A C54A C63U U135C: the “polymerase ribozyme fitness (log ratio)” value was no more than -4.2.

Turning to A20U G50C G58U C79G G84U U90G A107G C108G, the “polymerase ribozyme fitness (log ratio)” value is no more than -4.2.

Regarding A20C A28U G62U G74C C79G G86A U111C G117C A150U, the “polymerase ribozyme fitness (log ratio)” value was no more than -4.2.

As for A20U A60U G71A C93A A150G, the “polymerase ribozyme fitness (log ratio)” value was no more than -4.2.

Regarding A20G G88A G92A G136A, the “polymerase ribozyme fitness (log ratio)” value is no more than -4.2.

In the case of A20U G50A U56A G70A C93U G94C, the “polymerase ribozyme fitness (log ratio)” value is no more than -4.2.

Consider A20C G92U A107G G152U, for which the “polymerase ribozyme fitness (log ratio)” value was no more than -4.2.

On to A19U U53C C87G, for which the “polymerase ribozyme fitness (log ratio)” value was no more than -4.2.

Take A20U G133C U148A: the “polymerase ribozyme fitness (log ratio)” value is no more than -4.2.

With A20U U33A A37C A73U G84U U90A, the “polymerase ribozyme fitness (log ratio)” value is no more than -4.2.

For the variant A20U G86U A89C G112U A120U U145C, the “polymerase ribozyme fitness (log ratio)” value is no more than -4.2.

For A20C A52U C99G A106U C129A C132G, the “polymerase ribozyme fitness (log ratio)” value is no more than -4.2.

On to A20C A52C G71C C85U G140A, for which the “polymerase ribozyme fitness (log ratio)” value is no more than -4.2.

A20G A23C G84A G88U G141C: the “polymerase ribozyme fitness (log ratio)” value is no more than -4.2.

A20C C57G A60G C96A C114U C125U: the “polymerase ribozyme fitness (log ratio)” value is no more than -4.2.

Consider A20G A21U A23U C87A A91C C95A C118G G133U U135A, for which the “polymerase ribozyme fitness (log ratio)” value was no more than -4.2.

As for A20G C51U G58A C85U A106U, the “polymerase ribozyme fitness (log ratio)” value is -2.76.

Consider A20U C27G A28U C96A U139C, for which the “polymerase ribozyme fitness (log ratio)” value was no more than -4.2.

A20C A40G U61A C63A G65A C93A G136C: the “polymerase ribozyme fitness (log ratio)” value was no more than -4.2.

Consider A20G A22C G25C C57A G92A C99U C108A, for which the “polymerase ribozyme fitness (log ratio)” value was no more than -4.2.

As to A20C A26G A29G G48A C99U A119C U134G, the “polymerase ribozyme fitness (log ratio)” value was no more than -4.2.

Turning to A20U A24U C27U C75G C93A U148G U151A, the “polymerase ribozyme fitness (log ratio)” value was no more than -4.2.

For the variant A20U A21U U53A A60C G62U A73G C99U A110G U148A, the “polymerase ribozyme fitness (log ratio)” value was no more than -4.2.

On to A20C C54U U56A C85G G92A G141A, for which the “polymerase ribozyme fitness (log ratio)” value is no more than -4.2.

Regarding A21C A29C G46U G59A A60C A97G A110G G128A, the “polymerase ribozyme fitness (log ratio)” value was no more than -4.2.

Turning to A20C A73G C85G C96A G141C, the “polymerase ribozyme fitness (log ratio)” value is no more than -4.2.

Regarding A20G G58A A60U C85A U151C, the “polymerase ribozyme fitness (log ratio)” value was no more than -4.2.

Turning to A20C G68C A98U C99G G140U, the “polymerase ribozyme fitness (log ratio)” value is no more than -4.2.

On to A21C A29G A37G G88U A107U G128U A142G C149A, for which the “polymerase ribozyme fitness (log ratio)” value was no more than -4.2.

Turning to A20U G59A G88A C95G U151A, the “polymerase ribozyme fitness (log ratio)” value was no more than -4.2.

As to A20U A24C C38A G62C G94C A137U, the “polymerase ribozyme fitness (log ratio)” value was no more than -4.2.

Turning to A20C A28C G48C U53G C75G C93A, the “polymerase ribozyme fitness (log ratio)” value was no more than -4.2.

For A20C U33C A41C G67C G68C C72U U78G U90G U109A G133A, the “polymerase ribozyme fitness (log ratio)” value was no more than -4.2.

Regarding A20G A23C C51A C76G G94U, the “polymerase ribozyme fitness (log ratio)” value was no more than -4.2.

Turning to A20U G42C C93A G112U C125U, the “polymerase ribozyme fitness (log ratio)” value is no more than -4.2.

With A20U A30G U31C G42A A115G C116U, the “polymerase ribozyme fitness (log ratio)” value was no more than -4.2.

Consider A20C G83A C85A, for which the “polymerase ribozyme fitness (log ratio)” value is no more than -4.2.

In the case of A20G C27U A30G A60C U82G, the “polymerase ribozyme fitness (log ratio)” value is no more than -4.2.

Consider A20U A37C C54U C72A C87U C96A, for which the “polymerase ribozyme fitness (log ratio)” value was no more than -4.2.

For the variant A20U A22U A24U A41C G86A U90G A113G C118G, the “polymerase ribozyme fitness (log ratio)” value is no more than -4.2.

A20G C35U U55G C95U A107C G124U U146A: the “polymerase ribozyme fitness (log ratio)” value was no more than -4.2.

For A20U G67U G84U C96U G143U, the “polymerase ribozyme fitness (log ratio)” value is no more than -4.2.

As for A21C A28U U33G G58U A66G C85G G92A C95G A110U, the “polymerase ribozyme fitness (log ratio)” value is no more than -4.2.

Consider A20C A24G A40C C69A C75G C87U G88C U102C G124A G133C U135C A147C, for which the “polymerase ribozyme fitness (log ratio)” value was no more than -4.2.

Turning to A20C C36A C51U U55G C69G A73U G81A C96U G141U, the “polymerase ribozyme fitness (log ratio)” value is no more than -4.2.

For the variant A21C A24G A52C C54U G92A U104G G124U C129U U134C A138C, the “polymerase ribozyme fitness (log ratio)” value was no more than -4.2.

For A20U C32A C99A A115G A120U, the “polymerase ribozyme fitness (log ratio)” value was -4.05.

For A20C A41U G59A A60U C69G G86A C103G, the “polymerase ribozyme fitness (log ratio)” value was no more than -4.2.

Turning to A20C G46U C93U A115U G128U, the “polymerase ribozyme fitness (log ratio)” value was no more than -4.2.

As for A20G U53G A66U A73G C95A C149U, the “polymerase ribozyme fitness (log ratio)” value is no more than -4.2.

With A20U C51A G86U A106G, the “polymerase ribozyme fitness (log ratio)” value was no more than -4.2.

Regarding A20U C27U C76U C85U A97U C108A, the “polymerase ribozyme fitness (log ratio)” value is no more than -4.2.

As for A20C A52U G67C G88C, the “polymerase ribozyme fitness (log ratio)” value is no more than -4.2.

With A20U G42U C54G C76A G80A C93A C125U, the “polymerase ribozyme fitness (log ratio)” value is no more than -4.2.

For A20C A26C C57G G136U A138C, the “polymerase ribozyme fitness (log ratio)” value is no more than -4.2.

Regarding A20U A21C C54G G70A G92C C114A G143U, the “polymerase ribozyme fitness (log ratio)” value is no more than -4.2.

For A19U U33A A40C G86C A113G, the “polymerase ribozyme fitness (log ratio)” value is no more than -4.2.

Regarding A20U G62A C87A U135C, the “polymerase ribozyme fitness (log ratio)” value was no more than -4.2.

In the case of A20U A49C G92U G141A, the “polymerase ribozyme fitness (log ratio)” value was no more than -4.2.

With A20U U33G G81A G84C A98G G152U, the “polymerase ribozyme fitness (log ratio)” value was no more than -4.2.

For A20U U53G C57A A66C C85U A137G G140A, the “polymerase ribozyme fitness (log ratio)” value was no more than -4.2.

In the case of A20G A30U C87G C103U A107G U109A G133C A150C, the “polymerase ribozyme fitness (log ratio)” value is no more than -4.2.

Take A20C C43U U61A C99U C118G U151A: the “polymerase ribozyme fitness (log ratio)” value was no more than -4.2.

Consider A21C A29U A41C U77G C87G A119G, for which the “polymerase ribozyme fitness (log ratio)” value was no more than -4.2.

Regarding A20U A22U C57A C96G C125U, the “polymerase ribozyme fitness (log ratio)” value was -3.05.

Consider A20G C36A, for which the “polymerase ribozyme fitness (log ratio)” value was no more than -4.2.

For the variant A20U A41U G50A U53G C85U G126A, the “polymerase ribozyme fitness (log ratio)” value is no more than -4.2.

Turning to A20G U45A C63U G84A U145G, the “polymerase ribozyme fitness (log ratio)” value was no more than -4.2.

Turning to A20G C93U, the “polymerase ribozyme fitness (log ratio)” value is -2.59.

(Values after the RNAGym collection of RNA variant scans (doi:10.1073/pnas.2313332121).)
